Measured values taken from patent publication US20260306644A1, “ANTIBODY RECRUITING MOLECULES FOR THE TREATMENT OF CORONAVIRUS DISEASE-19” (priority 2023, published 2026).
Not every detail of the peptide structures is certain; ends, links or a residue may be inferred. At least one compound was matched to its structure with a doubt left.

Test system: Spike RBD coated magnetic beads / RAW 264.7 macrophages
Test: Antibody-dependent cellular phagocytosis (ADCP), RAW 264.7 macrophages and Spike RBD coated magnetic beads, flow cytometry
Format: cell-based
Conditions: 37° C., 2 hours, read-out: SARS-COV-2 ADCP EC50
Experimental: The ability of the compounds to mediate antibody-dependent cellular phagocytosis (ADCP) was assessed using RAW 264.7 macrophages and Spike RBD coated magnetic beads (https://www.acrobiosystems.com/P3194-SARS-CoV-2-Spike-RBD-coupled-Magnetic-Beads.html). Spike RBD coated magnetic beads (3 ul per well) were added to each well of a round bottom 96-well plates. RAW264.7 cells (50,000 cells per well) were added to the beads. Next, the compounds were administered to predetermined final concentrations. The cell-bead mixtures were incubated at 37° C. for 2 hours. The mixtures were then analyzed by flow cytometry.

CC[C@H](C)[C@H](NC(=O)[C@H](CC(C)C)NC(=O)[C@H](CC(=O)O)NC(=O)[C@H](CO)NC(=O)[C@@H](NC(=O)[C@H](CCCNC(=N)N)NC(=O)[C@H](CCSC)NC(=O)[C@H](CO)NC(=O)[C@H](C)NC(=O)[C@H](CCC(=O)O)NC(=O)[C@H](C)NC(=O)[C@H](Cc1c[nH]cn1)NC(=O)CNC(=O)[C@H](CC(C)C)NC(=O)[C@H](CCC(=O)O)NC(=O)[C@H](CC(=O)O)NC(=O)[C@H](CC(C)C)NC(=O)[C@H](CC(C)C)NC(=O)[C@H](CCCNC(=N)N)NC(=O)[C@H](CCSC)NC(=O)[C@@H](NC(=O)[C@H](CCC(=O)O)NC(=O)[C@H](Cc1ccc(O)cc1)NC(=O)[C@@H](NC(=O)[C@H](CCCCN)NC(=O)[C@H](CCC(N)=O)NC(=O)[C@H](CC(C)C)NC(=O)[C@@H](NC(=O)[C@H](Cc1c[nH]c2ccccc12)NC(=O)[C@H](CCC(=O)O)NC(=O)[C@H](CCCCN)NC(=O)[C@H](CC(=O)O)NC(=O)C(C)(C)NC(C)=O)[C@@H](C)CC)[C@@H](C)CC)[C@@H](C)CC)C(C)C)C(=O)N[C@@H](Cc1ccc(O)cc1)C(=O)N[C@@H](CCC(=O)O)C(=O)N[C@@H](Cc1ccccc1)C(=O)N[C@@H](CCSC)C(=O)N[C@@H](CCCCN)C(=O)N[C@@H](CCCCN)C(=O)NCC(=O)NCCOCCOCCOCCOCCOCCOCCOCCOCCC(=O)NCCOCCOCCOCCOCCOCCOCCOCCOCCC(=O)N[C@@H](CC(=O)O)C(=O)N[C@H]1CSSC[C@@H](C(=O)N[C@H](C(N)=O)[C@@H](C)O)NC(=O)[C@H](Cc2c[nH]c3ccccc23)NC(=O)[C@H](C(C)C)NC(=O)[C@H](CC(C)C)NC(=O)[C@H](CCC(=O)O)NC(=O)CNC(=O)[C@H](CC(C)C)NC(=O)[C@H](Cc2c[nH]cn2)NC(=O)[C@H](Cc2c[nH]c3ccccc23)NC(=O)[C@H](C)NC1=O [Compound 150]
EC50: 1.6 nM

CC[C@H](C)[C@H](NC(=O)[C@H](Cc1c[nH]c2ccccc12)NC(=O)[C@H](CCC(=O)O)NC(=O)[C@H](CCCCN)NC(=O)[C@H](CC(=O)O)NC(C)=O)C(=O)N[C@@H](CC(C)C)C(=O)N[C@@H](CCC(N)=O)C(=O)N[C@@H](CCCCN)C(=O)N[C@H](C(=O)N[C@@H](Cc1ccc(O)cc1)C(=O)N[C@@H](CCC(=O)O)C(=O)N[C@H](C(=O)N[C@@H](CCSC)C(=O)N[C@@H](CCCNC(=N)N)C(=O)N[C@@H](CC(C)C)C(=O)N[C@@H](CC(C)C)C(=O)N[C@@H](CC(=O)O)C(=O)N[C@@H](CCC(=O)O)C(=O)N[C@@H](CC(C)C)C(=O)NCC(=O)NCCOCCOCCOCCOCCOCCOCCOCCOCCC(=O)NCCOCCOCCOCCOCCOCCOCCOCCOCCC(=O)N[C@@H](CC(=O)O)C(=O)N[C@H]1CSSC[C@@H](C(=O)N[C@H](C(N)=O)[C@@H](C)O)NC(=O)[C@H](Cc2c[nH]c3ccccc23)NC(=O)[C@H](C(C)C)NC(=O)[C@H](CC(C)C)NC(=O)[C@H](CCC(=O)O)NC(=O)CNC(=O)[C@H](CC(C)C)NC(=O)[C@H](Cc2c[nH]cn2)NC(=O)[C@H](Cc2c[nH]c3ccccc23)NC(=O)[C@H](C)NC1=O)[C@@H](C)CC)[C@@H](C)CC [Compound 151]
EC50: 2 nM

CC[C@H](C)[C@H](NC(=O)[C@H](Cc1c[nH]c2ccccc12)NC(=O)[C@H](CCC(=O)O)NC(=O)[C@H](CCCCN)NC(=O)[C@H](CC(=O)O)NC(C)=O)C(=O)N[C@@H](CC(C)C)C(=O)N[C@@H](CCC(N)=O)C(=O)N[C@@H](CCCCN)C(=O)N[C@H](C(=O)N[C@@H](Cc1ccc(O)cc1)C(=O)N[C@@H](CCC(=O)O)C(=O)N[C@H](C(=O)N[C@@H](CCSC)C(=O)N[C@@H](CCCNC(=N)N)C(=O)N[C@@H](CC(C)C)C(=O)N[C@@H](CC(C)C)C(=O)N[C@@H](CC(=O)O)C(=O)N[C@@H](CCC(=O)O)C(=O)N[C@@H](CC(C)C)C(=O)NCC(=O)N[C@@H](Cc1c[nH]cn1)C(=O)N[C@@H](C)C(=O)N[C@@H](CCC(=O)O)C(=O)N[C@@H](C)C(=O)N[C@@H](CO)C(=O)NCCOCCOCCOCCOCCOCCOCCOCCOCCC(=O)NCCOCCOCCOCCOCCOCCOCCOCCOCCC(=O)N[C@@H](CC(=O)O)C(=O)N[C@H]1CSSC[C@@H](C(=O)N[C@H](C(N)=O)[C@@H](C)O)NC(=O)[C@H](Cc2c[nH]c3ccccc23)NC(=O)[C@H](C(C)C)NC(=O)[C@H](CC(C)C)NC(=O)[C@H](CCC(=O)O)NC(=O)CNC(=O)[C@H](CC(C)C)NC(=O)[C@H](Cc2c[nH]cn2)NC(=O)[C@H](Cc2c[nH]c3ccccc23)NC(=O)[C@H](C)NC1=O)[C@@H](C)CC)[C@@H](C)CC [Compound 152]
EC50: 3 nM

CC[C@H](C)[C@H](NC(=O)[C@H](Cc1c[nH]c2ccccc12)NC(=O)[C@H](CCC(=O)O)NC(=O)[C@H](CCCCN)NC(=O)[C@H](CC(=O)O)NC(C)=O)C(=O)N[C@@H](CC(C)C)C(=O)N[C@@H](CCC(N)=O)C(=O)N[C@@H](CCCCN)C(=O)N[C@H](C(=O)N[C@@H](Cc1ccc(O)cc1)C(=O)N[C@@H](CCC(=O)O)C(=O)N[C@H](C(=O)N[C@@H](CCSC)C(=O)N[C@@H](CCCNC(=N)N)C(=O)N[C@@H](CC(C)C)C(=O)N[C@@H](CC(C)C)C(=O)N[C@@H](CC(=O)O)C(=O)N[C@@H](CCC(=O)O)C(=O)N[C@@H](CC(C)C)C(=O)NCC(=O)N[C@@H](Cc1c[nH]cn1)C(=O)N[C@@H](C)C(=O)N[C@@H](CCC(=O)O)C(=O)N[C@@H](C)C(=O)N[C@@H](CO)C(=O)N[C@@H](CCSC)C(=O)N[C@@H](CCCNC(=N)N)C(=O)N[C@H](C(=O)N[C@@H](CO)C(=O)NCCOCCOCCOCCOCCOCCOCCOCCOCCC(=O)NCCOCCOCCOCCOCCOCCOCCOCCOCCC(=O)N[C@@H](CC(=O)O)C(=O)N[C@H]1CSSC[C@@H](C(=O)N[C@H](C(N)=O)[C@@H](C)O)NC(=O)[C@H](Cc2c[nH]c3ccccc23)NC(=O)[C@H](C(C)C)NC(=O)[C@H](CC(C)C)NC(=O)[C@H](CCC(=O)O)NC(=O)CNC(=O)[C@H](CC(C)C)NC(=O)[C@H](Cc2c[nH]cn2)NC(=O)[C@H](Cc2c[nH]c3ccccc23)NC(=O)[C@H](C)NC1=O)C(C)C)[C@@H](C)CC)[C@@H](C)CC [Compound 153]
EC50: 7.4 nM

CC[C@H](C)[C@H](NC(=O)[C@H](CC(C)C)NC(=O)[C@H](CC(=O)O)NC(=O)[C@H](CO)NC(=O)[C@@H](NC(=O)[C@H](CCCNC(=N)N)NC(=O)[C@H](CCSC)NC(=O)[C@H](CO)NC(=O)[C@H](C)NC(=O)[C@H](CCC(=O)O)NC(=O)[C@H](C)NC(=O)[C@H](Cc1c[nH]cn1)NC(=O)CNC(=O)[C@H](CC(C)C)NC(=O)[C@H](CCC(=O)O)NC(=O)[C@H](CC(=O)O)NC(=O)[C@H](CC(C)C)NC(=O)[C@H](CC(C)C)NC(=O)[C@H](CCCNC(=N)N)NC(=O)[C@H](CCSC)NC(=O)[C@@H](NC(=O)[C@H](CCC(=O)O)NC(=O)[C@H](Cc1ccc(O)cc1)NC(=O)[C@@H](NC(=O)[C@H](CCCCN)NC(=O)[C@H](CCC(N)=O)NC(=O)[C@H](CC(C)C)NC(=O)[C@@H](NC(=O)[C@H](Cc1c[nH]c2ccccc12)NC(=O)[C@H](CCC(=O)O)NC(=O)[C@H](CCCCN)NC(=O)[C@H](CC(=O)O)NC(C)=O)[C@@H](C)CC)[C@@H](C)CC)[C@@H](C)CC)C(C)C)C(=O)N[C@@H](Cc1ccc(O)cc1)C(=O)N[C@@H](CCC(=O)O)C(=O)NCCOCCOCCOCCOCCOCCOCCOCCOCCC(=O)NCCOCCOCCOCCOCCOCCOCCOCCOCCC(=O)N[C@@H](CC(=O)O)C(=O)N[C@H]1CSSC[C@@H](C(=O)N[C@H](C(N)=O)[C@@H](C)O)NC(=O)[C@H](Cc2c[nH]c3ccccc23)NC(=O)[C@H](C(C)C)NC(=O)[C@H](CC(C)C)NC(=O)[C@H](CCC(=O)O)NC(=O)CNC(=O)[C@H](CC(C)C)NC(=O)[C@H](Cc2c[nH]cn2)NC(=O)[C@H](Cc2c[nH]c3ccccc23)NC(=O)[C@H](C)NC1=O [Compound 154]
EC50: 1.6 nM

CC[C@H](C)[C@H](NC(C)=O)C(=O)N[C@@H](Cc1ccc(O)cc1)C(=O)N[C@@H](CCC(=O)O)C(=O)N[C@H](C(=O)N[C@@H](CCSC)C(=O)N[C@@H](CCCNC(=N)N)C(=O)N[C@@H](CC(C)C)C(=O)N[C@@H](CC(C)C)C(=O)N[C@@H](CC(=O)O)C(=O)N[C@@H](CCC(=O)O)C(=O)N[C@@H](CC(C)C)C(=O)NCC(=O)N[C@@H](Cc1c[nH]cn1)C(=O)N[C@@H](C)C(=O)N[C@@H](CCC(=O)O)C(=O)N[C@@H](C)C(=O)N[C@@H](CO)C(=O)N[C@@H](CCSC)C(=O)N[C@@H](CCCNC(=N)N)C(=O)N[C@H](C(=O)N[C@@H](CO)C(=O)N[C@@H](CC(=O)O)C(=O)N[C@@H](CC(C)C)C(=O)N[C@H](C(=O)N[C@@H](Cc1ccc(O)cc1)C(=O)N[C@@H](CCC(=O)O)C(=O)N[C@@H](Cc1ccccc1)C(=O)N[C@@H](CCSC)C(=O)N[C@@H](CCCCN)C(=O)N[C@@H](CCCCN)C(=O)NCC(=O)NCCOCCOCCOCCOCCOCCOCCOCCOCCC(=O)NCCOCCOCCOCCOCCOCCOCCOCCOCCC(=O)N[C@@H](CC(=O)O)C(=O)N[C@H]1CSSC[C@@H](C(=O)N[C@H](C(N)=O)[C@@H](C)O)NC(=O)[C@H](Cc2c[nH]c3ccccc23)NC(=O)[C@H](C(C)C)NC(=O)[C@H](CC(C)C)NC(=O)[C@H](CCC(=O)O)NC(=O)CNC(=O)[C@H](CC(C)C)NC(=O)[C@H](Cc2c[nH]cn2)NC(=O)[C@H](Cc2c[nH]c3ccccc23)NC(=O)[C@H](C)NC1=O)[C@@H](C)CC)C(C)C)[C@@H](C)CC [Compound 156]
EC50: 0.26 nM
